Measurements: publication PMC6919601, “Identification of Plasmodium dipeptidyl aminopeptidase allosteric inhibitors by high throughput screening” (PLoS ONE, 2019)
“And” between values parts separate entries of the source, which are not always exact repeats. Equal values may be shown once. Screen size: about 110,000 compounds; about 230 (0.21%) showed an effect of 50% or more. The list shows a part of the results.

Target: DPAP1 (Plasmodium falciparum, UniProt Q8IIJ9)
Assay: primary screen, percent inhibition; read by cleavage of a fluorogenic dipeptide substrate; higher = more effect of the substance
Set-up: species or system P. falciparum D10 trophozoite lysates; single well
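Note: 30 min substrate incubation versus DMSO and 10 µM JCP410 controls.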

Sequence of DPAP1 (Q8IIJ9 whole entry, looked up): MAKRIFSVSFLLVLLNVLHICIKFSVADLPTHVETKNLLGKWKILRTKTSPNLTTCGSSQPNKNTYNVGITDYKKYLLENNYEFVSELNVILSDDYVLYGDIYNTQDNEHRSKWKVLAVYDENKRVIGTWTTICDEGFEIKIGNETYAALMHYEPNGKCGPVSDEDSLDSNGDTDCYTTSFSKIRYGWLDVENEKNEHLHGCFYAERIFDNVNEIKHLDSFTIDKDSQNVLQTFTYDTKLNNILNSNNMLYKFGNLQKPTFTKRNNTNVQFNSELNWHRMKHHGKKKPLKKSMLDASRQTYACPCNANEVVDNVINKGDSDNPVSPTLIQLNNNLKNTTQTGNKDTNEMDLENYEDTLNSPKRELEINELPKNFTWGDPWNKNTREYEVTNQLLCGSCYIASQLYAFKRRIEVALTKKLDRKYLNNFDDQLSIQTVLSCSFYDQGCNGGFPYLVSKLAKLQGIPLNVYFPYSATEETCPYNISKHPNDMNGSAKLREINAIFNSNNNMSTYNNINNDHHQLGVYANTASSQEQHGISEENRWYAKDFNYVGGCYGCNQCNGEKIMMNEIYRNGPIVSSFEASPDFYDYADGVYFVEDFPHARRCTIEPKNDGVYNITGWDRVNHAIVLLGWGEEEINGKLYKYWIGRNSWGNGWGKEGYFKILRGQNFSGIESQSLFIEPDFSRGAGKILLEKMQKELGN

Row | SMILES | % Inhibition @ 10 uM
1 | O=C(Nc1ncc(CN2CCOCC2)s1)C12CC3CC(CC(C3)C1)C2 | 3.66%
2 | Cc1ccc(C(=O)C2=C(O)C(=O)N(CCN3CCOCC3)C2c2cccc(F)c2)cc1 (stereo not drawn) | -0.872%
3 | COc1ccccc1NC(=O)C1=C(C)N=C2CC(C)(C)CC(O)=C2C1c1ccccc1OC (stereo not drawn) | -4.12%
4 | CCOc1ccc(N(CC(=O)Nc2cccc(Cl)c2C)S(C)(=O)=O)cc1 | -0.473%
5 | CCOc1cc2c(cc1/C=C1/SC(=O)N(CC(=O)N3CCN(c4ccccc4)CC3)C1=O)OCO2 | 0.189%
6 | O=[N+]([O-])c1ccc(N2CCN(Cc3c[nH]c4ccccc34)CC2)cc1 | 0.605%
7 | COc1ccc(/C=c2/sc3n(c2=O)C(c2ccc(N(C)C)cc2)C(C(C)=O)=C(C)N=3)c(OC)c1 (stereo not drawn) | -0.48%
8 | NS(=O)(=O)c1cccc(C(=O)NCc2ccccc2)c1 | -5.47%
9 | O=C(CCCSc1nc(O)c2c3c(sc2n1)CCCC3)NCCCO | -4.76%
10 | Fc1ccccc1CSc1ccc(-c2cccs2)nn1 | 5.09%
11 | O=c1c2c(-c3ccc([N+](=O)[O-])cc3)csc2nc2n1CCCCC2 | 11.7%
12 | CCOC(=O)C1=C(C)N=C2SCC(=O)N2C1c1ccc(F)cc1 (stereo not drawn) | -2.91%
13 | N#CC1=C(N)Oc2cc(N)ccc2C1c1cccc(O)c1 (stereo not drawn) | -4.11%
14 | c1ccc(-c2noc(-c3cccc4ccccc34)n2)nc1 | -0.436%
15 | CCC/N=c1\c(NC(=O)c2cccs2)c(O)oc2ccccc12 | 1.12%
16 | Cc1cc(N2C(N)=C(C#N)C(c3cc(CN4CCOCC4)c(C)s3)C3=C2CCCC3=O)no1 (stereo not drawn) | -2.79%
17 | Cc1cccc(NC(=O)CC2SC(Nc3cc(C)cc(C)c3)=NC2=O)c1 (stereo not drawn) | -0.992%
18 | CCN(CCCNC1=NS(=O)(=O)C(c2ccc(C(C)C)cc2)=C1C)Cc1ccccc1 | 0.623%
19 | COc1ccc(N2Cc3ccc(OC)c(OC)c3C2=O)cc1 | -5.62%
20 | COC(=O)C1=C(C)N(C)C(C)=C(C(=O)OC)C1c1cc(Br)ccc1OC | 17%
21 | O=[N+]([O-])c1ccccc1CN1CCN(c2ccccc2)CC1 | -0.197%

Row | SMILES | % Inhibition @ 10 uM
22 | O=C1CC(NC2CCCC2)C(=O)N1c1ccc(Cl)cc1 (stereo not drawn) | -4.65%
23 | CC1C[C@@H](C(=O)NCC#N)N(C(=O)OCc2ccccc2)C1 (stereo partly drawn) | -1.5%
24 | CC(=O)c1cccc(NC(=O)CN(c2cccc(F)c2)S(C)(=O)=O)c1 | 3.58%
25 | COc1ccc(OC)c(NC(=O)c2ccc(C)s2)c1 | 0.431%
26 | CCC(C)NC(=O)Cn1c(=O)n(CCc2ccccc2)c(=O)c2c3c(sc21)CCCC3 (stereo not drawn) | 2.93%
27 | CCOC(=O)c1cc(O)c2c(ccc3[nH]c(-c4ccccc4)cc32)n1 | 16.1%
28 | C=CCc1c(C)nc2ccc(C(=O)OCC)cc2c1Cl | 1.27%
29 | Cc1ccc(Cn2c(C)c3cnn(CC(=O)NC4CCCC(C)C4C)c(=O)c3c2C)cc1 (stereo not drawn) | -2.17%
30 | Cc1c(-c2ccccc2)nc2c3ccccc3ccn12 | 4.52%
31 | CCC(C)NC(=O)C1CCN(S(C)(=O)=O)CC1 (stereo not drawn) | 2.05%
32 | N#CC1C(=O)N=C(N2CCCCC2)NC12CCCCC2 (stereo not drawn) | 1.91%
33 | O=C(CSc1nc2ccccc2[nH]1)Nc1ccc(Br)cc1 | 11.3%
34 | CCCCSC1=C(C#N)C(=O)NC(CC(C)C)S1 (stereo not drawn) | 3.35%
35 | CCCCN(C)CCNC(=O)c1cc2c(=O)oc3ccc(C)cc3c2s1 | -4.31%
36 | N#Cc1nc(COc2ccccc2)oc1NCc1ccc(F)cc1 | 1.35%
37 | COc1ccc2c(CNCc3ccc(OC(C)C)cc3)c(C(=O)O)n(Cc3ccccc3F)c2c1 | 0.616%
38 | CC(C)c1ccc(OCc2cccc(C(=O)O)c2)cc1 | 5.31%
39 | O=C(Nc1nnc(Cc2ccccc2F)s1)c1ccccc1Cl | 4.35%
40 | O=C(c1cnn(-c2ccccc2)c1-n1cccc1)N1CCN(C2CCCCC2)CC1 | 0.137%
41 | CCOC(=O)N1CCN(S(=O)(=O)N2CCCC(C(=O)NCCCN3CCC(C)CC3)C2)CC1 (stereo not drawn) | -1.34%
42 | CC1CCCC(C)N1CCCNc1ncnc2onc(-c3ccc(F)cc3)c12 (stereo not drawn) | 2.59%

Row | SMILES | % Inhibition @ 10 uM
43 | Cc1cc2c(c(=O)n1Cc1cccs1)C(c1cccs1)C(C#N)=C(N)O2 (stereo not drawn) | -8.72%
44 | Cc1ccc(C2C(C#N)=C(N)Oc3[nH]nc(-c4ccccc4)c32)cc1 (stereo not drawn) | -0.988%
45 | COc1ccc(OC)c([N+]2=C3SCCCN3C(O)(c3cccs3)C2)c1 (stereo not drawn) | 1.09%
46 | CCN(CC)CC(=O)Nc1c2c(nc3ccccc13)N(C)CC2 | -3.16% and -3.63%
47 | Cc1cccc(NC(=O)c2ccc(C)c(C)c2)n1 | 2.82%
48 | CCCN1CCN(CCCNC(=O)Cn2cc3c(n2)CCCC3)CC1 | 1.8%
49 | COCC(=O)Nc1ccc(F)cc1F | -4.15%
50 | COc1ccc(-c2sc(C(=O)O)c(C)c2C#N)cc1 | 9.79%
51 | Cc1ccc(/C=C2/SC(N3CCCCC3)=NC2=O)o1 | 3.05%
52 | Cc1c2cnn(CC(=O)NC(C)c3ccc4c(c3)OCCO4)c(=O)c2c(C)n1Cc1ccc(F)cc1 (stereo not drawn) | -7.72%
53 | COc1ccc(C(=O)N2CCN(c3nc4ccccc4o3)CC2)cc1OC | -0.834%
54 | CCC(=C1C(=O)CC(C)(C)CC1=O)N1CCCC1 | -3.46%
55 | COc1ccc(Cn2ccn(CC(N)=O)c(=O)c2=O)cc1 | -9.33%
56 | Cc1ccccc1Cn1c(C)c(CNCCc2ccc(S(N)(=O)=O)cc2)c(C(=O)O)c1C | -3.67%
57 | CC1(c2ccccc2)CC(C)(C)N(C(=O)c2ccc([N+](=O)[O-])cc2)c2ccccc21 (stereo not drawn) | 1.08%
58 | CC(C)NC(=O)c1cc2c(s1)-c1ccccc1SC2 | 2.85%
59 | CCN(CC)C(=O)C(=O)c1cn(Cc2ccc(Cl)cc2)c2ccccc12 | -0.92%
60 | COc1cccc(C2=NCCc3cc4c(cc32)OCO4)c1OC | 3.9%
61 | Cc1ccc(S(=O)(=O)Cc2nc(-c3ccc(C(=O)NCCC(C)C)cc3)oc2C)cc1 | -5.35%
62 | COc1ccc(C2C(C(=O)c3ccc(OC)c(F)c3)=C(O)C(=O)N2Cc2cccnc2)cc1 (stereo not drawn) | -1.89%
63 | Cc1nc2c(c(C)nn2-c2ccccc2)c(C)c1CCC(=O)NCC1CCN(CC(C)C)C1 (stereo not drawn) | -0.465%
